Data from article PMC4336329 (PLoS ONE, 2015).
Out of some 310,000 compounds screened, about 14,000 (4.5%) showed an effect of 50% or more. The effect is printed as a negative number. The list shows a part of the results.

Target: human ether-à-go-go-related gene (hERG) potassium channel (human, UniProt Q12809)
Experiment: primary screen, population patch clamp on CHO cells stably expressing hERG
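Note: peak tail current of the secondary pulse compared with the same well before compound.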

human ether-à-go-go-related gene (hERG) potassium channel, sequence (Q12809 whole entry, looked up): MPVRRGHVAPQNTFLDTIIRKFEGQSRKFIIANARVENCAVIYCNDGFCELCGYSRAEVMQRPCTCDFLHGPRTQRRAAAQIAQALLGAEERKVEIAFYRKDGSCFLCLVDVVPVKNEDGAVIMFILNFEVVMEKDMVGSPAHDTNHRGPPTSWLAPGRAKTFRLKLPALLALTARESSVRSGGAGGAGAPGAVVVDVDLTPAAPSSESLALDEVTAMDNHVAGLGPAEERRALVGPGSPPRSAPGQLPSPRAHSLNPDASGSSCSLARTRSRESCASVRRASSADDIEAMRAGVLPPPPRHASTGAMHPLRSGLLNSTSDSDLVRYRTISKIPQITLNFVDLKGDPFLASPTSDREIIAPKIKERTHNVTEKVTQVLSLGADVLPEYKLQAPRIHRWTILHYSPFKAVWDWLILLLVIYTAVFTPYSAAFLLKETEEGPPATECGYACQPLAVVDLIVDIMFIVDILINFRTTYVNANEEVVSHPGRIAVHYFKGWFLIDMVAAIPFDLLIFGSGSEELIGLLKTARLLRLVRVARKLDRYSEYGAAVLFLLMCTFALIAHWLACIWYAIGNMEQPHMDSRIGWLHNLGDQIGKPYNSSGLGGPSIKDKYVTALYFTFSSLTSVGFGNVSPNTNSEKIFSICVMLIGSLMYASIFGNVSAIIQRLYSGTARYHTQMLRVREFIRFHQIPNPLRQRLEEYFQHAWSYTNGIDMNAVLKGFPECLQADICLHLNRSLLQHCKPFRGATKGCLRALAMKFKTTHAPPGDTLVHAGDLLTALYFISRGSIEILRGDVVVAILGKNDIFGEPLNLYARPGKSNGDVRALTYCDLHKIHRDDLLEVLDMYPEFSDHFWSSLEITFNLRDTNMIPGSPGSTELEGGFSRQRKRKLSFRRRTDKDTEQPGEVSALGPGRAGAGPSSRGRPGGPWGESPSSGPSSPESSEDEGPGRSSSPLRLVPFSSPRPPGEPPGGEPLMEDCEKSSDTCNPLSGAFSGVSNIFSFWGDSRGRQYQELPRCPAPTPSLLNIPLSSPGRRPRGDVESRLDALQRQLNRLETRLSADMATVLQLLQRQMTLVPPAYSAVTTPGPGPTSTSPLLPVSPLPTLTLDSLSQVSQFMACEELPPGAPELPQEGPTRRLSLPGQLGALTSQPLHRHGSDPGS

Point of comparison: `Cc1cc(C)cc(NC(=O)c2oc3ccccc3c2COc2ccccc2)c1`, “hERG current change (%, negative = inhibition) at 10uM” value 1.36%. Against it:
- COc1ccc(C(=O)CC2C(=O)N(C)C(=O)N(C)C2=O)cc1 — higher, 3.03%
- O=[N+]([O-])c1ccc(C[n+]2c(-c3ccccc3)cc(-c3ccccc3)cc2-c2ccccc2)cc1.[O-][Cl+3]([O-])([O-])[O-] — lower, -25.8%
- COc1ccc(Cn2c(C)c(C)c(C#N)c2NC(=O)Nc2ccc(F)cc2)cc1 — lower, -3.49%
- Cn1c(CCc2ccccc2)n[nH]c1=S — higher, 12.4%
- Cc1ccc(-n2cc(-c3ccccc3)c3c(N4CCN(C)CC4)ncnc32)cc1 — lower, -9.95%
- S=C1NC(c2ccccc2)=CC(c2ccccc2)N1 (stereo not drawn) — higher, 6.64%
- COc1ccc(C(=O)N2CCN=C2SC)cc1 — lower, 1.04%
- CCOc1ccc(NC(=O)N2CCN(c3nc4ccccc4s3)CC2)cc1 — higher, 1.91%
- Cc1ccccc1NC(=O)C(=O)NNC(=O)COc1ccc2ccccc2c1 — higher, 20.1%
- CCc1nnc(NC(=O)C2CCCN(c3nc4ccccc4s3)C2)s1 (stereo not drawn) — lower, -5.43%
- C=CCNc1nnc(Sc2ncccc2[N+](=O)[O-])s1 — lower, -4.93%
- CC(=O)N1CCN(c2nc3ccc([N+](=O)[O-])cc3s2)CC1 — lower, -46.6%
- COc1ccc(-n2c(CN3CCN(Cc4ccccc4)CC3)nc3ccc([N+](=O)[O-])cc3c2=O)c(OC)c1 — lower, -51.1%
- O=C(Cc1n[nH]c(=O)c2ccccc12)OCC(=O)c1ccccc1Cl — higher, 11.1%
- CCOc1ccc(NC(=O)CN(C)C(=O)c2cc(S(=O)(=O)N3CCCCC3)ccc2Cl)cc1OCC — lower, -16.5%
- Cc1ccc(S(=O)(=O)N2CC3CCCN3c3ccc(C(F)(F)F)cc32)cc1 (stereo not drawn) — higher, 15.8%
- O=C(c1ccc(S(=O)(=O)N2CCCCCC2)cc1)N1CCN(c2ccccc2F)CC1 — lower, -27.2%
- COc1ccc(Cl)cc1C(=O)NCC(c1ccco1)N1CCCC1 (stereo not drawn) — lower, -44.5%
- O=S(=O)(c1ccccc1)c1cnn(-c2ccccc2)c1-c1ccc(F)cc1 — lower, -0.19%
- CCCCOCCCNC(=O)CCCOc1ccccc1 — lower, 0.373%
- CCCN(CC(=O)Nc1ccccc1OC)C(=O)c1cccc(S(=O)(=O)Nc2ccc(OC)cc2)c1 — lower, -11.4%
- CC(=O)Nc1ccc(C(=O)n2nc(C)cc2C)cc1 — higher, 7.12%
- Cc1ccc2c(c1)C(=O)OC1(O)C3C4C=CC(C4)C3C(=O)N21 (stereo not drawn) — higher, 10.2%
- Cc1ccc(S(=O)(=O)N2CCN(C(=O)CSc3ncc(C(F)(F)F)cc3Cl)CC2)cc1 — higher, 1.99%
- CC(C)Nc1nc(-c2ccncc2)nc(-c2ccccc2)c1C#N — higher, 20.4%
- COc1cc(CCC(=O)NNC(=O)c2ccc(Cl)cc2)cc(OC)c1OC — higher, 10.3%
- COc1ccc(C2C(C(=O)O)CC(=O)N2C2CCCCC2)cc1 (stereo not drawn) — lower, -13.8%
- CCn1c(SCC(=O)NCc2ccccc2)nc2ccccc2c1=O — lower, -11.6%
- S=C(NCCc1ccccc1)N/N=C/c1cccc(Cl)c1Cl — higher, 14.5%
- CCN1C(=O)CSc2ccc(C(=O)NC3CCCCC3)cc21 — lower, -5.4%
- COCCOc1cc(-n2ccnc2SC)c(Cl)cc1Cl — lower, -12%
- O=C(COC(=O)C1CCN(c2ccc(C(F)(F)F)cn2)CC1)Nc1cccc(F)c1 — higher, 17.4%
- Cc1cc(C)n2nc(-c3sccc3-n3c(C)ccc3C)cc2n1 — higher, 17.3%
- O/N=C/c1cc2ccccc2n1Cc1ccccc1F — higher, 13.6%
- CCn1c(C)c(C(C)=O)c(N2CCN(c3cccc(Cl)c3)CC2)nc1=S — lower, -27.6%
- Cc1noc(C)c1S(=O)(=O)N(CC(=O)N1CCn2c1nc1ccccc12)c1ccc(C(C)C)cc1 — lower, -14.9%
- COCCOC(=O)c1c(NC(=O)CNc2ccc(C)c(F)c2)sc(C(N)=O)c1C — higher, 3.31%
- CCOC(=O)N1CCN(C(=O)COC(=O)c2ccc(S(=O)(=O)N(CC)CC)cc2)CC1 — lower, -18.9%
- CN(CC(=O)Nc1cccc(F)c1)C(=O)CCc1nc2cc(S(=O)(=O)N3CCOCC3)ccc2n1C — lower, -9.01%
- CCn1cc(S(=O)(=O)c2ccc(OC)cc2)c(=O)c2cc(F)c(N3CCN(C)CC3)cc21 — lower, -17.5%
- Cc1cc(C)cc(C(=O)OCC(=O)Nc2ncccn2)c1 — lower, -0.75%
- CC(C)OP(=O)(OC(C)C)C(Nc1ccccc1)c1cccc2c1OCO2 (stereo not drawn) — lower, -27.9%
- COc1cc(NC(=O)CCc2ccccc2)nc(OC)n1 — lower, -17.8%
- NC(=O)c1cccnc1Oc1ccc(Cl)cc1Cl — lower, -16.1%
- O=Cc1cn(Cc2ccccc2F)c2ccccc12 — higher, 6.19%
- CC1CCN(C(=O)CSc2nnc(-c3ccco3)o2)CC1 — lower, -17.4%
- CC(=O)c1ccc(C(=O)Nc2ccc(N3CCOCC3)cc2)cc1 — higher, 13.1%
- Cc1nn(CC(=O)N2CCN(Cc3ccccc3)CC2)c(=O)c2ccccc12 — lower, -2.85%
- Cc1ccc(C)c(SCC(=O)Nc2ccc(S(=O)(=O)Nc3ncccn3)cc2)c1 — higher, 15.5%
- CCN(CC)CCCn1c(=S)[nH]c2ncccc2c1=O — lower, -15.9%
- CC(C)(C)N1C(=O)[C@H]2[C@@H](c3ccc(Br)cc3)N3C(=O)N(c4cccc(Cl)c4)C(=O)[C@@]3(C)[C@H]2C1=O — higher, 2.53%
- O=C(CSc1nnc(Cc2cccs2)n1-c1ccc(Cl)cc1)NCc1ccc2c(c1)OCO2 — lower, -34.5%
- COc1ccc(COC(=O)c2ccc(S(=O)(=O)N3CCC(C)CC3)cc2)cc1 — higher, 16.5%
- Cc1nc2ccccc2c(=O)n1NCc1cc(Br)cs1 — lower, -8.7%
- O=S(Cc1ccc(Cl)cc1)CC(O)COc1ccc(Cl)cc1 (stereo not drawn) — lower, 0.213%
- Nc1nc(-c2ccc(Cl)cc2)nn1C(=O)c1ccco1 — higher, 23.3%
- CNC(=O)NC(=O)C(OC(=O)CCNS(=O)(=O)c1ccccc1)c1ccccc1 (stereo not drawn) — higher, 9.53%
- O=C(CSc1nc(-c2ccc(F)cc2)nc2ccc(F)cc12)Nc1cccc(C(=O)O)c1 — higher, 17%
- CC(C)C(=O)N1CCN(c2nc(-c3ccc(Cl)cc3)cs2)CC1 — lower, -82.5%
- N#Cc1c(-c2ccccc2)nc(SCC(=O)NC2CCCCC2)[nH]c1=O — higher, 31%
- O=C(Nc1cccc(Cl)c1N1CCOCC1)c1ccco1 — lower, -8.08%
- CC(C)Cc1nc2sc3c(=O)[nH]cnc3c2c2c1CCCC2 — higher, 15.8%
- Cc1ccc(S(=O)(=O)N2CCOCC2)cc1C(=O)N1CCCC1 — higher, 19.6%
- CC1(C)CC(=S)Nc2ccccc2S1 — higher, 3.69%
- COc1ccc(N(C(=O)c2ccco2)C(C(=O)NC2CCCC2)c2ccncc2)cc1 (stereo not drawn) — lower, -18.4%
- CC(=O)N1CCOc2ccc(S(=O)(=O)NCc3ccc(F)cc3)cc21 — lower, -16.6%
- O=C(Nc1ccc(C(=O)N2CCOCC2)cc1)Nc1cccc(C(F)(F)F)c1 — higher, 1.55%
- COC(=O)c1ccsc1NC(=O)CN1CCN(Cc2ccc3c(c2)OCO3)CC1 — lower, -78.4%
- O=C(O)CCC(=O)Nc1ccccc1Oc1ccccc1 — higher, 11.6%
- CC1CCCN(c2nc3ccccc3nc2C(C#N)S(=O)(=O)c2ccccc2)C1 (stereo not drawn) — higher, 7.12%
- O=C(C1CCCCC1)N1CCC(c2nc3ccccc3[nH]2)CC1 — lower, -5.51%
- C=CCN(C(=O)c1csnn1)C(C(=O)NCc1ccc(F)cc1)c1cccs1 (stereo not drawn) — lower, 1.15%
- CCCOC(=O)c1ccc(N2C(=O)c3ccccc3C2=O)cc1 — higher, 2.96%
- O=C(O)c1cc(S(=O)(=O)Nc2ccc3cn[nH]c3c2)ccc1Br — higher, 4.52%
- CCCOc1ccccc1NC(=O)c1ccc([N+](=O)[O-])cc1 — higher, 2.83%
- COc1ccc(CNC(=O)CCCn2nc(C)c3c(C)n(-c4ccc(C)cc4)nc3c2=O)cc1 — higher, 2.19%
- CCCSc1nnc(C(C)C)n1N — higher, 2.7%
- O=C(C1CCCO1)N1CCC(O)(c2ccccc2)CC1 (stereo not drawn) — higher, 22.9%
- CC(C)(C)n1nnnc1C(c1cccs1)N1CCN(Cc2ccccc2)CC1.Cl (stereo not drawn) — lower, -9.24%
- COCCCNC(=S)NNC(=O)c1ccccc1Br — higher, 10.5%
- CC(=O)c1csc(Nc2ccccc2Cl)n1 — lower, 1.25%
- CCC(C)C(=O)Nc1cc(Cl)ccc1C(=O)O (stereo not drawn) — higher, 16.5%
- Cc1cccc(C(=O)Nc2cccc(OC(=O)c3cccc(C)c3)c2)c1 — higher, 10.3%
- CCCNC(=O)c1cc(S(=O)(=O)N2CCc3ccccc32)cn1C — lower, -0.715%
- COc1ccc(C2CC(c3ccc4ccccc4c3)=NN2C(=O)CN2CCC(C(N)=O)CC2)cc1 (stereo not drawn) — higher, 3.17%
- COc1cccc(-c2cc3nc(-c4ccccc4)cc(N4CCC5(CC4)OCCO5)n3n2)c1 — higher, 5.79%
